Experimental data reported in PMC4336329 (PLoS ONE, 2015).
In all, about 310,000 compounds went through this assay and about 2,200 (0.71%) showed an effect of 50% or more. The effect is printed as a negative number. Some of the results follow.

Biological target: human ether-à-go-go-related gene (hERG) potassium channel (human, UniProt Q12809)
Test: primary screen, population patch clamp on CHO cells stably expressing hERG

Chain of human ether-à-go-go-related gene (hERG) potassium channel (Q12809 whole entry, looked up): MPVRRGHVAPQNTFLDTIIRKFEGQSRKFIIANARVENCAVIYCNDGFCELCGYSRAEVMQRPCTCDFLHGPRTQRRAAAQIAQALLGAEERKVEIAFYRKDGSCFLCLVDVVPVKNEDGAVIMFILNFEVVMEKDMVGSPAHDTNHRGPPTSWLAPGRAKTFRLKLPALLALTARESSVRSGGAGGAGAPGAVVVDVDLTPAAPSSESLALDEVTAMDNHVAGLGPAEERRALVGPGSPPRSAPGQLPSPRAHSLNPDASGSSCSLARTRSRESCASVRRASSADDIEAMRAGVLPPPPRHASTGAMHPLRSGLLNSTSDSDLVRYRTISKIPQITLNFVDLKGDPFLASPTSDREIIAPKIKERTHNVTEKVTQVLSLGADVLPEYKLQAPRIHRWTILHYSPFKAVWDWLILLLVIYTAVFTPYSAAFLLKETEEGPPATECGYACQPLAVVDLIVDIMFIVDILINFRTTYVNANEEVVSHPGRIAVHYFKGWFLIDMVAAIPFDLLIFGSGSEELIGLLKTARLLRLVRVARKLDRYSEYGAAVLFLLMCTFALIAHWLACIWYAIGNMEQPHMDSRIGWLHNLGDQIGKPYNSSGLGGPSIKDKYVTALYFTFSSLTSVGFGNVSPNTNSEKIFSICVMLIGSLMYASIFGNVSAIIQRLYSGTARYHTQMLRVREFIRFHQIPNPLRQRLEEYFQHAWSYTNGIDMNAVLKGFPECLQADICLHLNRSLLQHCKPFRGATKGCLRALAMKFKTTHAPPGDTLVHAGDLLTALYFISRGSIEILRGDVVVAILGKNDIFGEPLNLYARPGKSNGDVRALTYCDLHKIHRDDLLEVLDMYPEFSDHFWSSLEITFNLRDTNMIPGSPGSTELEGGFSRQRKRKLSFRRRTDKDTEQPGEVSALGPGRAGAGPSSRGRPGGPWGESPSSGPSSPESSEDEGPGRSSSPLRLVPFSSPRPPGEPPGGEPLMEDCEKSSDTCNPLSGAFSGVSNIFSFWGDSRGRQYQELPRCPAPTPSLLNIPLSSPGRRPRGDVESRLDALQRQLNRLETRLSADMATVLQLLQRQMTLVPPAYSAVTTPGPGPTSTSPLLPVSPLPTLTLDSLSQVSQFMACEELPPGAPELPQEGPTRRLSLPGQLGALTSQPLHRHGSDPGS

| Structure (SMILES) | hERG current change (%, negative = inhibition) at 1uM [%] |
| --- | --- |
| COc1ccc(CN2CCCC(CNC(=O)c3ccc(F)cc3)C2)cc1OC (stereo not drawn) | -54.3 |
| O=[N+]([O-])c1ccc2c(c1)C=C1CCCCC1(N1CCCCC1)O2 (stereo not drawn) | 7.3 |
| O=C(c1cc(-c2ccccc2)n[nH]1)N1CCN(S(=O)(=O)c2ccccc2)CC1 | 1.72 |
| CCOC(=O)c1ccccc1OCc1cc(/C=N/NC(=O)c2cccnc2)ccc1OC | 11.6 |
| CCCCn1c(NCc2ccccc2O)nc2ccccc21 | 13.8 |
| COc1ccc(-c2nc(-c3cccnc3)no2)cc1OC | 11.4 |
| O=C(CSc1nc(C(F)(F)F)cc(=O)[nH]1)Nc1cccc2ccccc12 | -11 |
| Fc1cc(F)cc(NC(=S)Nc2ccccc2N2CCOCC2)c1 | 1.78 |
| Cc1cccc(-c2nc(N)nc(N)n2)c1 | 14.2 |
| O=S(=O)(NCc1ccccc1)c1cccc2nonc12 | 0.358 |
| COC(=O)CSc1nnc(-c2cccnc2)n1-c1cc(OC)cc(OC)c1 | -12.6 |
| Cc1cccc2sc(NNC(=O)c3ccc(S(=O)(=O)N4CCc5ccccc5C4)cc3)nc12 | 17.6 |
| O=C1CC(c2ccccc2)n2nc(NC(=O)c3ccccc3)nc2N1 (stereo not drawn) | 1.42 |
| Cc1cc2c(cc1C)CSC(c1ccc3ccccc3c1O)SC2 | 12.8 |
| CCC1CCCCN1CC(C)(C)NS(=O)(=O)c1ccccc1 (stereo not drawn) | 2.34 |
| CCOC(=O)c1ccc(NC(=O)CSc2ccc(-c3cccnc3)nn2)cc1 | 0.928 |
| Cn1c(/C=N/O)nc2ccccc21 | 8.01 |
| CCONC(=O)Nc1ccccc1 | 20.8 |
| CC(O)CNc1ncnc2cc(-c3ccc(F)cc3)sc12 (stereo not drawn) | 5.95 |
| O=C(NCCCN1CCC(Cc2ccccc2)CC1)C1CCC(=O)N1C1CCCC1 (stereo not drawn) | 13 |
| O=C(O)CCC(=O)N(Cc1ccccc1)Cc1ccccc1 | 13.4 |
| COCC(C)NC(=O)c1nn(Cc2ccccc2)c(=O)c2ccccc12 (stereo not drawn) | 7.12 |
| CCOC(=O)c1sc(N2C(=O)C(O)=C(C(=O)c3ccc(C)o3)C2c2ccc(OC)c(OC)c2)nc1C (stereo not drawn) | 11.3 |

| Structure (SMILES) | hERG current change (%, negative = inhibition) at 1uM [%] |
| --- | --- |
| CCOc1ccccc1N(CC(=O)Nc1ccccc1C(=O)N1CCCC1)S(C)(=O)=O | 10.9 |
| CCN1CCN(CCCNC(=O)c2cn(CCOC)c(=O)c3c2c2ccccc2n3C)CC1 | 0.221 |
| Cl.Oc1cccc(Nc2ncnc3c2oc2ccccc23)c1 | 10 |
| CCOC(=O)Cc1c(C)nc2cc(-c3ccc(C)cc3)[nH]n2c1=O | 10.7 |
| Cc1cnc(C(=O)OCC(=O)Nc2ncc(Cl)cc2Cl)cn1 | 26.1 |
| CNC(=S)NNC(=O)c1sc(-c2cc(C)on2)nc1C | 13.6 |
| NNC(=O)CSc1cccc2cccnc12 | 3.95 |
| O=C1CN(C(=O)c2ccccc2F)C(c2ccc(F)cc2)c2cc(Br)ccc2N1 (stereo not drawn) | 3.87 |
| O=c1[nH]c2ccccc2c(=O)n1Cc1ccco1 | 6.5 |
| CN(c1ccc(C(=O)NCc2ccncc2)cc1)S(=O)(=O)c1ccc(Cl)cc1 | 8.9 |
| CCOC(=O)c1sc(N=NC2=C(O)CC(C)(C)CC2=O)c(C(=O)OCC)c1C | 9.12 |
| C=CCc1ccc(OC(=O)NC2CCCCC2)c(OC)c1 | 2.84 |
| O=C(NC1CCCC1)c1cc(-c2cccc(Cl)c2)on1 | 8.04 |
| COc1ccc(NS(=O)(=O)c2ccc(NC(=S)NC(=O)C(C)C)cc2)cc1 | 6.14 |
| Cc1cnc(C(=O)OC(C)C(=O)Nc2cccc3ccccc23)cn1 (stereo not drawn) | 21.5 |
| COc1ccc(C(=O)OCC(=O)NC2CCCCCC2)cc1OC | 10 |
| Cn1c(CN2CCOCC2)nc2cc(NC(=O)c3ccc(F)cc3)ccc21 | -1.78 |
| COc1cc(CCC(=O)OCC(=O)Nc2ccc(F)c(F)c2)cc(OC)c1OC | 3.59 |
| Cn1c(SCC(=O)NC2CC2)nnc1-c1ccccc1Cl | 11.6 |
| O=C(CNC(=O)C1CC(=O)N(c2cccc3ccccc23)C1)Nc1ccccc1Br (stereo not drawn) | 10.7 |
| COc1ccccc1-n1nnnc1SCC(=O)NC(=O)Cc1ccccc1 | 1.92 |
| CC(CC(=O)C1C(C)C=CCC1(C)C)NNC(N)=O (stereo not drawn) | 24.6 |
